Data as given in PMC4336329 (PLoS ONE, 2015).
Out of some 310,000 compounds screened, about 2,200 (0.71%) showed an effect of 50% or more. The effect is printed as a negative number. Some of the results follow.

These molecules were tested against human ether-à-go-go-related gene (hERG) potassium channel (human, UniProt Q12809) (assay: primary screen, population patch clamp on CHO cells stably expressing hERG).
human ether-à-go-go-related gene (hERG) potassium channel, sequence (Q12809 whole entry, looked up): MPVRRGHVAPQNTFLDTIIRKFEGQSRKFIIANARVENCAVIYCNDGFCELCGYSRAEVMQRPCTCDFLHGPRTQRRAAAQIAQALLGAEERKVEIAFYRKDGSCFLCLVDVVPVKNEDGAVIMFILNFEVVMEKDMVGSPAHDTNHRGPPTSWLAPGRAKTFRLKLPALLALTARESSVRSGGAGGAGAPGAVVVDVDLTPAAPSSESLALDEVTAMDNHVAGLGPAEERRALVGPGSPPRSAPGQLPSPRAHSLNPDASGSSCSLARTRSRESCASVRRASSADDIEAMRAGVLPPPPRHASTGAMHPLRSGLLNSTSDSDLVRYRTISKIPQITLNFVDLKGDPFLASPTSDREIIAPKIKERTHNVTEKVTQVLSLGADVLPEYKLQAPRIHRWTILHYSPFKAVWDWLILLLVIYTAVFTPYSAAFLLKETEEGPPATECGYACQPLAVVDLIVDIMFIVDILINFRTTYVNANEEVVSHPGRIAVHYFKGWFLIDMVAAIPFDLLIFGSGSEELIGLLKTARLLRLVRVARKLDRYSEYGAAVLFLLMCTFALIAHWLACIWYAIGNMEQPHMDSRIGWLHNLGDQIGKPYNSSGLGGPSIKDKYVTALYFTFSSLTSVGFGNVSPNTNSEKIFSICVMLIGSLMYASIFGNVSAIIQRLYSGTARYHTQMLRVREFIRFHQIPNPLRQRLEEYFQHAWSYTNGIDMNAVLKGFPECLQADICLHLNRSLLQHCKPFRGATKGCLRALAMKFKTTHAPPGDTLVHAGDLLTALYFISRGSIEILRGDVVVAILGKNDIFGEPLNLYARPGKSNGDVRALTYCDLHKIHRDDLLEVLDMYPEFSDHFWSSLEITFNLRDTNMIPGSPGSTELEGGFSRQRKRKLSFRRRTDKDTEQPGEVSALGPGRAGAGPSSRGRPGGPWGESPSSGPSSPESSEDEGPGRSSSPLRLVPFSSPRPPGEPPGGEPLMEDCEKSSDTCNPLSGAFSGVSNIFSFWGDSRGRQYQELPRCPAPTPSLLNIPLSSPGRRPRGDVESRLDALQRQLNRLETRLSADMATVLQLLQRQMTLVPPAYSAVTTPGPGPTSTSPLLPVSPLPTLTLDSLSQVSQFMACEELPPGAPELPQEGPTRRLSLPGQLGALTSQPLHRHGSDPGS

SMILES	hERG current change (%, negative = inhibition) at 1uM [%]
COc1ccc(-c2cc(C(=O)O)c3sc(N4CCCCC4)nc3n2)cc1OC	1.33
O=C(Nc1ccc(Cl)cc1)c1ccc(OC2CSC2)cc1	13.1
COc1ccc(CCNC(=O)/C=C/c2ccc(C)cc2)cc1OC	3.86
O=C(Cn1ccc2ccccc2c1=O)NCCC(=O)N1CCN(C2CCCCC2)CC1	3.99
CN(CC(=O)Nc1c(Cl)cccc1Cl)C(=O)Cc1cccs1	-2.47
Clc1cc(Br)ccc1OCCOCCN1CCCC1.O=C(O)C(=O)O	-23
CCOC(=O)N1CCN(C(=S)NC(=O)c2cc(Br)ccc2Cl)CC1	6.42
CCOC(=O)c1cnn(CCOC(=O)c2ccccc2F)c1NC(=O)c1ccccc1F	0.0433
COc1ccccc1N=C1SC(C)CN1C(=O)C1CCC1 (stereo not shown)	9.35
COc1ccc(/C=C(\C#N)C(=O)NCc2ccccc2)cc1	20
COc1ccc(-c2nnc3sc(-c4ccccc4OC)nn23)cc1	0.831
CC12CCC(C(=O)NNC(=O)c3ccc(Br)cc3)(OC1=O)C2(C)C (stereo not shown)	26.8
O=C(Nc1ccc2oc(=O)ccc2c1)c1ccc2ccccc2c1	19.4
COc1ccc(C2C3=C(CCCC3=O)NC3=C2C(=O)c2ccccc23)cc1 (stereo not shown)	15
Cc1cc(NC(=O)CSCCc2ccncc2)no1	9.74
O=C(O)CC1=C(Nc2ccccc2)C(=O)N(c2ccccc2)C1c1ccc(F)cc1 (stereo not shown)	6.65
Cc1cc(C)cc(C(=O)OCC(=O)NC2CCCC2)c1	5.26
Cl.N=C(N)SCc1ccc(O)c([N+](=O)[O-])c1	5.74
CCOc1ccc(C(C)=O)cc1CC(C(N)=O)C(N)=O	18.7
O=C(NCc1ccccc1)C1(c2ccccc2)CCN(S(=O)(=O)c2ccccc2)CC1	-11.2
COCCCNC(=O)c1cc2cc([N+](=O)[O-])cc(OC)c2oc1=O	4.34
COc1ccc(NS(=O)(=O)c2ccc(C)c(C(=O)N(C)CC(=O)Nc3cccc(OC)c3)c2)cc1	4.62

SMILES	hERG current change (%, negative = inhibition) at 1uM [%]
S=c1[nH]nc([C@@H]2C[C@H]2c2ccccc2)n1-c1ccccc1Cl	14
COc1cccc(C2=CC(c3ccc(C)cc3)n3ncnc3N2)c1 (stereo not shown)	2.57
Oc1c(N=NC(=S)Nc2ccccc2F)c2ccccc2n1Cc1ccc(Cl)cc1	11.2
CCC(=O)NC(=S)Nc1ccc(N2CCN(C(=O)c3ccc(Cl)cc3)CC2)cc1	4.44
COc1ccc2[nH]c(C)c(C(=O)CN(C)C)c2c1	6.98
CC1CN(C(=O)/C=C/c2cccc([N+](=O)[O-])c2)CC(C)O1 (stereo not shown)	-4.44
O=C(NC1(C(F)(F)F)N=C2SCCN2C1=O)C1CCCCC1 (stereo not shown)	11.1
O=C(NCCO)c1ccc(CSc2nc3ccccc3[nH]2)cc1	10.6
O=C1CN(C(=O)c2c(F)cccc2F)C(c2ccc(F)cc2)c2cc(Br)ccc2N1 (stereo not shown)	-2.22
Cc1cccc(C)c1NC(=O)c1cccc(N2C(=O)C3CCC(C)CC3C2=O)c1 (stereo not shown)	15.2
COc1cccc(=O)c2c(C)n(C)c(C)c12	-13.8
O=C1NC(=O)N(c2ccccc2F)C(=O)/C1=C/c1ccc(Oc2ccc([N+](=O)[O-])cn2)cc1	8.42
Cc1cccc(S(=O)(=O)Nc2cccc3c2C(=O)c2ccccc2-3)c1	3.03
CC(NC(=S)NCc1ccc(F)cc1)C12CC3CC(CC(C3)C1)C2 (stereo not shown)	11.4
CC(C)(C)c1nc2ccc(NS(=O)(=O)c3ccc(F)c(F)c3F)cc2[nH]1	15
COc1ccc(N2CC(C(=O)Nc3cccc(OC(C)C)c3)CC2=O)cc1 (stereo not shown)	6.21
Cc1ccnc(SCc2ccc(C(=O)O)cc2)n1	10.1
O=c1[nH]c(CN2CC=C(c3ccccc3)CC2)nc2cc(C(F)(F)F)ccc12	6.41
COc1ccc(N2CC(=O)N(c3ccc(OC)c(OC)c3)CC2=O)cc1OC	5.5
CCN1CCN(c2nc3c(c(=O)[nH]2)CCCC3)CC1	9.93
CCCCn1c(C(C)NC(=O)CC)nc2ccccc21 (stereo not shown)	-14.7
